Measured values published in patent US10299477B2 (priority 2015, dated 2019).

Tests used:
Type in all cases: in vivo
Botrytis cinerea = assay: Test Example B: Gray mold on tomato
From the text: [Test Example B] Gray Mold on Tomato
Seeds of a test plant (tomato variety: Oogata Fukuju) were planted followed by cultivating until three to five first leaves (true leaves) appeared.

Alternaia brassicicola = assay: Test Example C: Alternaria sooty spot on cabbage; conditions: for Test C control value / Test C (control value class): Alternaria sooty spot on cabbage
From the text: [Test Example C] Alternaria Sooty Spot on Cabbage
Seeds of a test plant (cabbage variety: Shikidori) were planted followed by cultivating until the cotyledons extended.

[1] = tested on: Blumeria graminis f sp. hordei; assay: Test Example D: Powdery mildew on barley
From the text: [Test Example D] Powdery Mildew on Barley
After the sprayed dilutions were dried, conidia of Blumeria graminis f sp. hordei were inoculated to the plants by shaking off.

Puccinia recondita = assay: Test Example E: Brown rust on wheat; conditions: for Test E control value: Brown rust on wheat; for Test E (control value class): brown rust on wheat, Puccinia recondita
From the text: [Test Example E] Brown Rust on Wheat

[2] = gray mold on tomato, Botrytis cinerea, 250 ppm spray
[3] = powdery mildew on barley, 250 ppm spray
[4] = 250 ppm spray, preventive, control value class

| SMILES | Test B control value (Botrytis cinerea; Gray mold on tomato) | Test C control value (Alternaia brassicicola) | Test D control value ([1]; Powdery mildew on barley) | Test E control value (Puccinia recondita) | also measured |
| --- | --- | --- | --- | --- | --- |
| CCn1c(-c2c(F)cc(F)cc2F)c(-c2cc(OC)cc(OC)c2Br)ccc1=O [Compound 132] | H (H shows more than 50% of control values) | H (H shows more than 50% of control values) | H (H shows more than 50% of control values) | H (H shows more than 50% of control values) | – |
| CCCn1c(-c2c(F)cccc2F)c(-c2cc(OC)cc(OC)c2Br)ccc1=O [Compound 42] | H (H shows more than 50% of control values) | H (H shows more than 50% of control values) | H (H shows more than 50% of control values) | H (H shows more than 50% of control values) | – |
| CCn1c(-c2c(F)cccc2F)c(-c2ccccc2Cl)ccc1=O [Compound 74] | H (H shows more than 50% of control values) | H (H shows more than 50% of control values) | H (H shows more than 50% of control values) | H (H shows more than 50% of control values) | – |
| Cn1c(-c2c(F)cccc2F)c(-c2ccccc2Br)cc(Cl)c1=O [Compound 95] | H (H shows more than 50% of control values) | H (H shows more than 50% of control values) | H (H shows more than 50% of control values) | H (H shows more than 50% of control values) | – |
| CCN1C(=O)CCC(c2cc(OC)cc(OC)c2Cl)=C1c1c(F)cccc1F [Compound 117] | H (H shows more than 50% of control values) | H (H shows more than 50% of control values) | H (H shows more than 50% of control values) | H (H shows more than 50% of control values) | – |
| COc1ccc(F)c(-c2cc(Cl)c(=O)n(C)c2-c2c(F)cccc2F)c1F [Compound 110] | H (H shows more than 50% of control values) | H (H shows more than 50% of control values) | H (H shows more than 50% of control values) | H (H shows more than 50% of control values) | – |
| COc1ccc(F)c(-c2cc(Br)c(=O)n(C)c2-c2c(F)cccc2F)c1F [Compound 109] | H (H shows more than 50% of control values) | H (H shows more than 50% of control values) | L (L shows 50% or less of control values) | H (H shows more than 50% of control values) | – |
| CCn1c(-c2c(F)cc(OC)cc2F)c(-c2cccc(F)c2Cl)cc(C)c1=O [Compound 515] | – | – | – | – | Test B (control value class) (Botrytis cinerea; [2]): H (H shows more than 50% of control values); Test D (control value class) [1, 3]: H (H shows more than 50% of control values); Test E (control value class) (Puccinia recondita; 250 ppm spray): H (H shows more than 50% of control values) |
| CCn1c(-c2c(F)cccc2F)c(-c2ccc(F)cc2Cl)cc(Br)c1=O [Compound 63] | H (H shows more than 50% of control values) | H (H shows more than 50% of control values) | H (H shows more than 50% of control values) | H (H shows more than 50% of control values) | – |
| Cn1c(-c2c(F)cccc2F)c(-c2ccc(F)cc2)ccc1=O [Compound 19] | H (H shows more than 50% of control values) | H (H shows more than 50% of control values) | H (H shows more than 50% of control values) | H (H shows more than 50% of control values) | – |
| CCn1c(-c2c(F)cccc2F)c(-c2cc(OC)c(Br)c(OC)c2)ccc1=O [Compound 39] | H (H shows more than 50% of control values) | H (H shows more than 50% of control values) | H (H shows more than 50% of control values) | H (H shows more than 50% of control values) | – |
| COc1ccc(F)c(-c2ccc(=O)n(C)c2-c2c(F)cccc2F)c1 [Compound 91] | H (H shows more than 50% of control values) | H (H shows more than 50% of control values) | H (H shows more than 50% of control values) | H (H shows more than 50% of control values) | – |
| COc1cnc(-c2c(-c3ccccc3)ccc(=O)n2C)c(Cl)c1 [Compound 9] | H (H shows more than 50% of control values) | H (H shows more than 50% of control values) | H (H shows more than 50% of control values) | H (H shows more than 50% of control values) | – |
| CCn1c(-c2c(F)cccc2F)c(-c2ccccc2I)ccc1=O [Compound 111] | H (H shows more than 50% of control values) | H (H shows more than 50% of control values) | H (H shows more than 50% of control values) | H (H shows more than 50% of control values) | – |
| COc1cc(OC)c(Cl)c(C2=C(c3c(F)cccc3F)N(CC(F)(F)F)C(=O)CC2)c1 [Compound 334] | – | – | – | – | Test B control value (gray mold on tomato) (Botrytis cinerea; [4]): H (H shows more than 50% of control values); Test C control value (Alternaria sooty spot on cabbage) (Alternaia brassicicola; [4]): L (L shows 50% or less of control values); Test D control value (powdery mildew on barley) [1, 4]: H (H shows more than 50% of control values); Test E control value (brown rust on wheat) (Puccinia recondita; [4]): H (H shows more than 50% of control values) |
| CCn1c(-c2ccncc2Cl)c(-c2ccccc2)ccc1=O [Compound 13] | H (H shows more than 50% of control values) | H (H shows more than 50% of control values) | H (H shows more than 50% of control values) | H (H shows more than 50% of control values) | – |
| CCn1c(-c2c(F)cccc2F)c(-c2cc(OC)ccc2F)cc(Br)c1=O [Compound 88] | H (H shows more than 50% of control values) | H (H shows more than 50% of control values) | H (H shows more than 50% of control values) | H (H shows more than 50% of control values) | – |
| CCn1c(-c2c(F)cccc2F)c(-c2c(Cl)c(OC)cc(OC)c2Br)ccc1=O [Compound 67] | H (H shows more than 50% of control values) | H (H shows more than 50% of control values) | L (L shows 50% or less of control values) | H (H shows more than 50% of control values) | – |
| CCn1c(-c2ncc(Cl)cc2Cl)c(-c2ccc(F)cc2)ccc1=O [Compound 26] | H (H shows more than 50% of control values) | H (H shows more than 50% of control values) | H (H shows more than 50% of control values) | H (H shows more than 50% of control values) | – |
| CCn1c(-c2c(F)cccc2F)c(-c2cc(OC)c(Cl)c(OC)c2)ccc1=O [Compound 40] | H (H shows more than 50% of control values) | H (H shows more than 50% of control values) | H (H shows more than 50% of control values) | H (H shows more than 50% of control values) | – |
| CCn1c(-c2c(F)cccc2F)c(-c2cc(OC(C)=O)ccc2Cl)ccc1=O [Compound 107] | H (H shows more than 50% of control values) | H (H shows more than 50% of control values) | H (H shows more than 50% of control values) | H (H shows more than 50% of control values) | – |
| CCn1c(-c2c(F)cc(F)cc2F)c(-c2cc(OC)cc(OC)c2Cl)ccc1=O [Compound 133] | H (H shows more than 50% of control values) | H (H shows more than 50% of control values) | H (H shows more than 50% of control values) | H (H shows more than 50% of control values) | – |
| CCn1c(-c2c(F)cccc2F)c(-c2cccc(F)c2F)cc(Br)c1=O [Compound 520] | – | – | – | – | Test B (control value class) (Botrytis cinerea; [2]): H (H shows more than 50% of control values); Test C (control value class) (Alternaia brassicicola; 250 ppm spray): H (H shows more than 50% of control values); Test D (control value class) [1, 3]: H (H shows more than 50% of control values) |
| CCn1c(-c2c(F)cc(F)cc2F)c(-c2ccccc2Cl)ccc1=O [Compound 420] | – | – | – | – | Test B (control value class) (Botrytis cinerea; [2]): H (H shows more than 50% of control values); Test C (control value class) (Alternaia brassicicola; 250 ppm spray): H (H shows more than 50% of control values); Test D (control value class) [1, 3]: H (H shows more than 50% of control values) |
| CCn1c(-c2c(F)cc(OC)cc2F)c(-c2cccc(F)c2C)cc(C)c1=O [Compound 516] | – | – | – | – | Test B (control value class) (Botrytis cinerea; [2]): H (H shows more than 50% of control values); Test D (control value class) [1, 3]: H (H shows more than 50% of control values); Test E (control value class) (Puccinia recondita; 250 ppm spray): H (H shows more than 50% of control values) |
| Cn1c(-c2c(F)cc(F)cc2F)c(-c2cc(F)cc(F)c2Br)ccc1=O [Compound 815] | – | – | – | – | Test B (control value class) (Botrytis cinerea; Gray mold on tomato, control value=100{1-(n/3)}): H (H shows more than 50% of control values); Test C (control value class) (Alternaia brassicicola; control value=100{1-(n/3)}): H (H shows more than 50% of control values); Test D (control value class) ([1]; Powdery mildew on barley, control value=100{1-(n/3)}): H (H shows more than 50% of control values) |
| Cc1ccccc1-c1ccc(=O)n(C)c1-c1c(F)cccc1F [Compound 180] | – | – | – | H (H shows more than 50% of control values) | – |
| CCn1c(-c2c(F)cccc2F)c(-c2cccc(F)c2)ccc1=O [Compound 153] | H (H shows more than 50% of control values) | – | – | – | – |
